{"source": "paper PMC4336329", "about": "(PLoS ONE, 2015)", "note": "About 14,000 (4.5%) of roughly 310,000 compounds showed an effect of 50% or more. The effect is printed as a negative number. This is one part of the list.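 Also: peak tail current of the secondary pulse compared with the same well before compound.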"}
{"molecular_target": "human ether-à-go-go-related gene (hERG) potassium channel (human, UniProt Q12809)", "sequence (Q12809 whole entry, looked up)": "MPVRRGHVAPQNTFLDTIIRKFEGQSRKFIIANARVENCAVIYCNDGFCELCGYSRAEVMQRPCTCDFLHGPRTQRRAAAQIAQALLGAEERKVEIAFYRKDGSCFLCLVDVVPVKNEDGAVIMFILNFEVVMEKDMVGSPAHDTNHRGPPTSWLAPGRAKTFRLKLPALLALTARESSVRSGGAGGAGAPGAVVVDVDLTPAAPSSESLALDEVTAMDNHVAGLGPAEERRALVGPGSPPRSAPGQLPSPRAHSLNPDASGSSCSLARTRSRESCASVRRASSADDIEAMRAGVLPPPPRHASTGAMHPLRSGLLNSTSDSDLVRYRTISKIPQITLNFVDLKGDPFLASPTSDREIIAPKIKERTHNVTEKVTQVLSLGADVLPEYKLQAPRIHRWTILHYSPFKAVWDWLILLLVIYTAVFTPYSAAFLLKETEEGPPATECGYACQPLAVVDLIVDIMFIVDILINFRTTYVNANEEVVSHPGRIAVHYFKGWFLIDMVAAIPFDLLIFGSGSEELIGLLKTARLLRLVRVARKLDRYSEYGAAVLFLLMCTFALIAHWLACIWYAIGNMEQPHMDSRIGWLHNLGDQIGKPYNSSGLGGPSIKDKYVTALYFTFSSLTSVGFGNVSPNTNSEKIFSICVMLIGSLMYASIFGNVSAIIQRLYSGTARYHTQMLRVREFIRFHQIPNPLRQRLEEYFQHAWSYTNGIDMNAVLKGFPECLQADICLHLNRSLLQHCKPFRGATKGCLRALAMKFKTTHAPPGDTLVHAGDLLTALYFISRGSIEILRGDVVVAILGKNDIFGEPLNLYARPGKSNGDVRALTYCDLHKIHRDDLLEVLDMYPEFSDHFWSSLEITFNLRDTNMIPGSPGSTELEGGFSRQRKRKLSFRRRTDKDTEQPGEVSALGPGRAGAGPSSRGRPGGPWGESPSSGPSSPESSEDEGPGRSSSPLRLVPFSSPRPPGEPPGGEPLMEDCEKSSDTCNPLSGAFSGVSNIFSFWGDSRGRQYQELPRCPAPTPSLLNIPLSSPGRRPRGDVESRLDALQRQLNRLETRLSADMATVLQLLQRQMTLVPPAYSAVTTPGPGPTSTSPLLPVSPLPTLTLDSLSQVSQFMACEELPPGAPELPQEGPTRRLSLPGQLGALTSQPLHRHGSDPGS", "experiment": "primary screen, population patch clamp on CHO cells stably expressing hERG", "units": {"hERG current change (%, negative = inhibition) at 10uM": "%"}}
{"compound": "CN(C)S(=O)(=O)c1ccc(Cl)c(C(=O)OCC(=O)NNC(=O)c2cccs2)c1", "hERG current change (%, negative = inhibition) at 10uM": 3.65}
{"compound": "CCOC(=O)CC(=O)CSc1nc(-c2ccc3c(c2)OCO3)cc(C(F)(F)F)c1C#N", "hERG current change (%, negative = inhibition) at 10uM": 13.2}
{"compound": "CC(=O)Nc1ccc(NC(=O)COC(=O)[C@@H](NC(=O)c2ccc(F)cc2)C(C)C)cc1", "hERG current change (%, negative = inhibition) at 10uM": 2.3}
{"compound": "COc1ccc(S(=O)(=O)NC(C)C(=O)Nc2cccc([N+](=O)[O-])c2)cc1", "note": "(centres unmarked)", "hERG current change (%, negative = inhibition) at 10uM": -7.24}
{"compound": "Cc1ccc(/C=N/Nc2ccc(Cl)nn2)cc1", "hERG current change (%, negative = inhibition) at 10uM": -0.808}
{"compound": "CC(C)N1CCc2c(sc(NC(=O)c3ccc(C(=O)c4ccccc4)cc3)c2C(N)=O)C1.Cl", "hERG current change (%, negative = inhibition) at 10uM": -38.2}
{"compound": "O=C(Nc1c(S(=O)(=O)c2ccc(Cl)cc2)csc1Br)c1ccccc1Cl", "hERG current change (%, negative = inhibition) at 10uM": -42.4}
{"compound": "CC(C)CCNC(=O)C1CCN(C(=O)N(C)C)CC1", "hERG current change (%, negative = inhibition) at 10uM": 14.5}
{"compound": "CCOc1ccc2[nH]c(=O)c(C(c3nnnn3CCOC)N3CCOCC3)cc2c1", "note": "(centres unmarked)", "hERG current change (%, negative = inhibition) at 10uM": 10.2}
{"compound": "CCS(=O)(=O)NCC(c1ccco1)N1CCN(c2ccc(F)cc2)CC1", "note": "(centres unmarked)", "hERG current change (%, negative = inhibition) at 10uM": -11.5}
{"compound": "O=[N+]([O-])c1cccc(-c2ccc(CN3CCCCC3)o2)c1", "hERG current change (%, negative = inhibition) at 10uM": -35}
{"compound": "Cc1cccc(N2CCN(c3nc4ccccc4n4cnnc34)CC2)c1C", "hERG current change (%, negative = inhibition) at 10uM": 15}
{"compound": "CCn1nccc1C(=O)Nc1ccc(Cl)c(Cl)c1", "hERG current change (%, negative = inhibition) at 10uM": -25.5}
{"compound": "Cc1cccc(NC(=O)C2CCCN(S(=O)(=O)c3ccc(-n4cnnn4)cc3)C2)c1", "note": "(centres unmarked)", "hERG current change (%, negative = inhibition) at 10uM": -35.9}
{"compound": "CCOc1ccc(OCCC(=O)OCC(=O)Nc2cc(C)nn2-c2ccccc2)cc1", "hERG current change (%, negative = inhibition) at 10uM": -39.6}
{"compound": "Cc1ccc(C(=O)NCCn2ccc3ccccc32)cc1[N+](=O)[O-]", "hERG current change (%, negative = inhibition) at 10uM": -36.3}
{"compound": "O=c1nc2ccccc2c(NS(=O)(=O)c2ccc(Cl)cc2)n1-c1ccccc1", "hERG current change (%, negative = inhibition) at 10uM": 10.3}
{"compound": "O=C(Nc1ccc(S(=O)(=O)Nc2ncccn2)cc1)c1ccccc1NS(=O)(=O)c1ccc(Cl)cc1", "hERG current change (%, negative = inhibition) at 10uM": 15.4}
{"compound": "O=C(CSc1nc2ccccc2s1)NCC1CCCO1", "note": "(centres unmarked)", "hERG current change (%, negative = inhibition) at 10uM": 7.82}
{"compound": "COc1ccc(OCCSc2nc3ccccc3n2CC(=O)O)cc1", "hERG current change (%, negative = inhibition) at 10uM": 3.81}
{"compound": "CSc1nnc(C)c(=O)n1COC(=O)c1ccc(S(=O)(=O)N(C)C)cc1", "hERG current change (%, negative = inhibition) at 10uM": -26.8}
{"compound": "CCO[C@@H]1OC(C(=O)O)=C[C@H](c2cn(C(C)=O)c3ccccc23)[C@H]1CCCO", "hERG current change (%, negative = inhibition) at 10uM": 13.7}
{"compound": "CC(C)(CO)C(O)C(=O)NCCC#N", "note": "(centres unmarked)", "hERG current change (%, negative = inhibition) at 10uM": 5.14}
{"compound": "Cl.OC(COc1ccc(Br)cc1)CN1CCCC1", "note": "(centres unmarked)", "hERG current change (%, negative = inhibition) at 10uM": -24.3}
{"compound": "NC(=O)CC[C@@H]1NC(=O)[C@@H]2CCCN2C(=O)c2cc([N+](=O)[O-])cc(I)c2NCCC[C@@H](C(N)=O)NC1=O", "hERG current change (%, negative = inhibition) at 10uM": 8.4}
{"compound": "Cc1ccc(COc2ccsc2-c2n[nH]c(=S)n2C)cc1", "hERG current change (%, negative = inhibition) at 10uM": 6.14}
{"compound": "CCOc1ccc(S(=O)(=O)N2CCCC(C(=O)NCc3cccnc3)C2)cc1", "note": "(centres unmarked)", "hERG current change (%, negative = inhibition) at 10uM": -17.5}
{"compound": "CCCOc1ccc(/C=C2\\SC(N)=NC2=O)cc1OC", "hERG current change (%, negative = inhibition) at 10uM": 3.66}
{"compound": "CCC1CN(C(=O)N2CCC(C(=O)NCc3cc(OC)c(OC)c(OC)c3)CC2)c2ccccc2O1", "note": "(centres unmarked)", "hERG current change (%, negative = inhibition) at 10uM": 7.08}
{"compound": "O=C(Nc1cc(Cl)cc(Cl)c1)c1ccno1", "hERG current change (%, negative = inhibition) at 10uM": 1.23}
{"compound": "O=C(Nc1cccc(Cl)c1Cl)C1CCN(C(=O)c2cccs2)CC1", "hERG current change (%, negative = inhibition) at 10uM": -9.78}
{"compound": "CCc1nc2ccc(C(=O)N(CC)CC(=O)Nc3c(F)cccc3F)cc2nc1CC", "hERG current change (%, negative = inhibition) at 10uM": -3.65}
{"compound": "NC(=O)C(c1ccc(Cl)cc1)c1ncc(C(F)(F)F)cc1Cl", "note": "(centres unmarked)", "hERG current change (%, negative = inhibition) at 10uM": -9.62}
{"compound": "O=C(NCCCCNC(=O)c1c(Cl)cccc1Cl)c1c(Cl)cccc1Cl", "hERG current change (%, negative = inhibition) at 10uM": 10.2}
{"compound": "Cc1cccc(OCC(=O)NCCCNC(=O)c2cccnc2)c1", "hERG current change (%, negative = inhibition) at 10uM": 18.8}
{"compound": "Cc1cccc(NCN2C(=O)C3C4C=CC(C4)C3C2=O)c1", "note": "(centres unmarked)", "hERG current change (%, negative = inhibition) at 10uM": -7.49}
{"compound": "CCOc1ccc(OCC)c(NC(=O)CC2Oc3ccccc3NC2=O)c1", "note": "(centres unmarked)", "hERG current change (%, negative = inhibition) at 10uM": 1.2}
{"compound": "Cc1cccc(-n2ccnc2CN2CCN(C3CCCC3)C(CCO)C2)c1", "note": "(centres unmarked)", "hERG current change (%, negative = inhibition) at 10uM": -59.1}
{"compound": "O=C(C1CCC1)N1CCc2cc(S(=O)(=O)N3CCCCC3)ccc21", "hERG current change (%, negative = inhibition) at 10uM": -7.1}
{"compound": "COC(=O)c1ccc(NC(=O)c2cc3sccc3n2C)cc1", "hERG current change (%, negative = inhibition) at 10uM": 5.05}
{"compound": "COc1ccccc1-c1cc(C(F)(F)F)nc(S(C)(=O)=O)n1", "hERG current change (%, negative = inhibition) at 10uM": -1.71}
{"compound": "CC(C)c1onc(C(=O)N2CCC3(CC2)OCCO3)c1[N+](=O)[O-]", "hERG current change (%, negative = inhibition) at 10uM": -2.76}
{"compound": "CC(=NCCCn1ccnc1)c1c(O)n(C2CCCCC2)c(=O)[nH]c1=O", "hERG current change (%, negative = inhibition) at 10uM": -14.6}
{"compound": "CCn1c(CCCc2ccc(OC)c(C)c2)n[nH]c1=S", "hERG current change (%, negative = inhibition) at 10uM": 7.46}
